Hit rate of the full screen: of about 350,000 compounds, about 9,900 (2.8%) were called active. Inconclusive means that the source gave no clear call. Such entries were picked first, then a sample of the others. Calls follow the shape of the dose curve; as a rule, active = well fitted activation curve with a large enough effect; inconclusive = small, poorly fitted or top-dose-only effect; inactive = no such curve, though single readings can be large or run the other way. No potency is given beside an inconclusive call; the fits are too rough.
Test: A quantitative high throughput screen for small molecules that induce DNA re-replication in MCF 10a normal breast cells. Also: nearly all actives have a fitted effect of over 50% in size.
Details: MCF 10A DNA re-replication, Hoechst nuclear intensity, 48 h; series mostly up to 46.1 µM
Potency is read from the fitted curve at half-maximal effect; tags tell the direction and shape of the fitted curve.

| SMILES | Potency |
| --- | --- |
| O=C(c1ccc([N+](=O)[O-])cc1)N1CCOC12CCN(c1ncc(C(F)(F)F)cc1Cl)CC2 | inactive |
| Cc1cc(C)c(CN2CCN(C(=O)Cn3ccc(NC(=O)OCc4ccccc4)nc3=O)CC2)c(C)c1 | inconclusive [activator, single point] |
| O=C(Nc1ccccc1C(=O)NC(Cc1c[nH]c2ccccc12)C(=O)O)c1ccccc1 (stereo not given) | inconclusive [activator, single point] |
| CCc1c(C)sc(NC(=O)C2CC2c2ccccc2)c1C(N)=O (stereo not given) | inconclusive [activator, full curve, poor fit] |
| CC(/C=N/NC(=O)c1nnn(-c2nonc2N)c1CN1CCCCC1)=C\c1ccccc1 | active: 7.31 µM |
| C=CCn1cc(C(=O)NCCCN(CC)CC)c(=O)c2cc(S(=O)(=O)N3CCC(C)CC3)ccc21 | inconclusive [activator, partial curve, poor fit] |
| COc1ccc(Nc2nc(N)c(C(=O)c3ccc(F)cc3)s2)cc1 | active: 2.59 µM |
| C=CCn1c(SCC(=O)c2cccs2)nc2sc(C)c(C)c2c1=O | inconclusive [activator, full curve] |
| CC1CC(C)CN(C(=O)CSC2=Nc3ccccc3C3=NC(Cc4c[nH]c5ccccc45)C(=O)N23)C1 (stereo not given) | inconclusive [activator, partial curve, poor fit] |
| CCc1nccn1CCC(=O)N1CCCC(N2CCN(c3cccc(Cl)c3)CC2)C1 (stereo not given) | inactive |
| CCCC(=O)Nc1ccc(C(=O)N/N=C/c2ccc[nH]2)cc1 | active: 16.4 µM |
| O=S(=O)(c1ccccc1)N1CCN(C2CCCCCCC2)CC1 | inconclusive [activator, partial curve, poor fit] |
| O=C(CSc1nnc2c(n1)[nH]c1ccccc12)NCc1ccccc1F | inactive |
| COCCN(CCOC)C(=O)c1ccc(CSc2nc3ccccc3s2)cc1 | inconclusive [activator, partial curve, poor fit] |
| CCSc1nnc(-c2ccncc2)o1 | inactive |
| CC(C)(C)c1ccc(-c2nc(C#N)c(NCc3cccnc3)o2)cc1 | inconclusive [activator, single point] |
| N#Cc1c(NC(=O)c2cnccn2)sc2c1CCCC2 | inconclusive [activator, partial curve] |
| CC(C)(C)n1nc2c(c1NC(=O)c1ccc(C(F)(F)F)cc1)CS(=O)(=O)C2 | inactive |
| CCCCCn1c(=N)c(S(=O)(=O)c2ccc(Cl)cc2)cc2c(=O)n3cccc(C)c3nc21 | inconclusive [activator, full curve, poor fit] |
| NC(=O)c1ccc(N2CCN(S(=O)(=O)c3ccccc3)CC2)c([N+](=O)[O-])c1 | inactive |
| CCn1c(SCC(=O)Nc2nc3ccc(C)cc3s2)nc2c(c1=O)SC(C)C2 (stereo not given) | inconclusive [activator, full curve, poor fit] |
| CCCc1nc([N+](=O)[O-])c(S(=O)(=O)c2ccccc2)n1CC(C)C | inconclusive [activator, single point] |

| SMILES | Potency |
| --- | --- |
| COc1ccc(-c2csc(N3C(=O)C4C5c6ccccc6C(c6ccccc65)[C@@H]4C3=O)n2)cc1 (stereo not given in full) | inactive |
| CCc1nc(SCC(=O)Nc2nnc(CC(C)C)s2)n[nH]1 | inconclusive [activator, single point] |
| O=C(NCCCc1ccccc1)C1CC1 | inactive |
| C=CCOc1ccc(Br)cc1CNCCCN1CCOCC1 | inactive |
| CCOC(=O)c1c(-c2ccccc2)csc1NC(=O)/C(C#N)=C/c1ccc(O)c(OC)c1 | active: 20.6 µM |
| Cc1c(NC(=O)COC(=O)CCc2c[nH]c3ccccc23)c(=O)n(-c2ccccc2)n1C | inconclusive [activator, partial curve, poor fit] |
| O=C(COc1ccc(Cl)cc1)Nc1cccc(S(=O)(=O)NCc2ccco2)c1 | inconclusive [activator, single point] |
| O=C(NC1CCCCC1)c1cc(-c2cccc(Cl)c2)on1 | inconclusive [activator, single point] |
| Nc1nonc1-n1nnc(C(=O)N/N=C/c2ccc(OCc3ccccc3F)cc2)c1CNc1ccccc1 | inconclusive [activator, partial curve, poor fit] |
| COc1ccc(N(C)C(=O)c2cc3c(Cl)nc4ccccc4c3s2)cc1 | inactive |
| COc1ccc(OCC(O)CNCCOc2ccccc2OC)c(C(C)(C)C)c1 (stereo not given) | inconclusive [activator, single point] |
| COc1cc(C2NC(=O)NC(C)=C2C(=O)OCC2CCCO2)ccc1O (stereo not given) | inconclusive [activator, single point] |
| CC(=O)Nc1sc(C)c(C)c1C(=O)OCC(=O)N(CC(C)C)c1c(N)n(Cc2ccccc2)c(=O)[nH]c1=O | inconclusive [activator, single point] |
| C=CCn1c(=N)c(C(=O)NCCCOC)cc2c(=O)n3cccc(C)c3nc21 | active: 4.11 µM |
| CCN(CC)CCN(C(=O)c1cc2ccccc2cc1OC)c1nc2ccc(OC)cc2s1 | inconclusive [activator, single point] |
| CC(=O)c1cc2c(cc1NC(=O)CCc1c(C)nc3ncnn3c1C)OCO2 | inactive |
| O=C(C1CCCN(S(=O)(=O)Cc2ccccc2)C1)N1CCc2ccccc21 (stereo not given) | inconclusive [activator, single point] |
| COc1cc(/C=N/Nc2snc(SC)c2C#N)cc(OC)c1OC | inconclusive [activator, partial curve] |
| COc1cccc(-n2ccnc2SCC(=O)Nc2ccccc2F)c1 | inactive |
| CCC(=O)N1CCN(c2nc(-c3ccc(Cl)cc3)cs2)CC1 | inconclusive [activator, partial curve, poor fit] |
| Cc1cc(C)nc(N2CCCC(C(=O)NCc3cccc(C(F)(F)F)c3)C2)n1 (stereo not given) | inconclusive [activator, partial curve, poor fit] |
| COc1ccc(C(=O)NNC(=O)c2ccccc2[N+](=O)[O-])cc1Br | inconclusive [activator, partial curve] |

| SMILES | Potency |
| --- | --- |
| CN(C)/C=N/c1ncc(C(=O)c2ccc(-c3ccccc3)cc2)s1 | active: 9.2 µM |
| COc1ccc(OC)c(-c2cc(C3CCN(C(=O)OC(C)(C)C)CC3)[nH]n2)c1 | inconclusive [activator, partial curve, poor fit] |
| COc1ccc(N(C)S(=O)(=O)c2cccc(C(=O)NCC3CCCO3)c2)cc1 (stereo not given) | inconclusive [activator, partial curve, poor fit] |
| O=C1N(CN2C(=O)C3(OCCO3)c3ccccc32)c2ccccc2C12OCCO2 | inconclusive [activator, single point] |
| COc1ccc(CN=C2NC(=O)CC(C(=O)Nc3ccc(Cl)cc3)S2)cc1 (stereo not given) | inconclusive [activator, full curve] |
| Cc1cc(C)cc(N2C(=O)C=CC2=O)c1 | active: 6.51 µM |
| COc1cc(-c2nc(S(=O)(=O)c3ccc(Cl)cc3)c(N(C)C)o2)cc(OC)c1OC | inconclusive [activator, partial curve, poor fit] |
| COCCn1cnc2c1c(=O)n(Cc1c(F)cccc1Cl)c(=O)n2Cc1ccccc1 | inconclusive [activator, single point] |
| CCc1ccccc1NC(=O)c1ccc(CN2CCC(Cc3ccccc3)CC2)cc1 | inconclusive [activator, single point] |
| CCOc1cc(NC(=S)Nc2cccc(OC)c2)c(OCC)cc1NC(=O)C1CC1 | inconclusive [activator, partial curve, poor fit] |
| CCNc1ncnc2[nH]ncc12 | inactive |
| COc1ccc(C(=O)CN2CCN(S(=O)(=O)c3cccc([N+](=O)[O-])c3)CC2)cc1OC | inconclusive [activator, partial curve, poor fit] |
| Clc1ccc(-c2nc3ncccn3c2Nc2ccc3c(c2)OCO3)cc1 | inconclusive [activator, single point] |
| O=C(COC(=O)c1ccc2c(c1)S(=O)(=O)c1ccccc1C2=O)NC1CC1 | inactive |
| CCOc1ccccc1NC(=S)N(Cc1cc2ccc(C)cc2[nH]c1=O)CC1CCCN1CC (stereo not given) | inconclusive [activator, partial curve, poor fit] |
| COC(=O)C1=C(Nc2ccccc2NS(=O)(=O)c2ccc(C(F)(F)F)cc2Cl)CSC1 | inconclusive [activator, full curve, poor fit] |
| O=C(O)c1ccc(NC(=O)c2cn(-c3ccccc3)nc2-c2ccc(Cl)cc2)cc1 | inconclusive [activator, single point] |
| Cn1c(Cn2nnc3ccccc32)nnc1SCC(=O)N1c2ccccc2Sc2ccccc21 | inconclusive [activator, partial curve, poor fit] |
| Cc1ccc(S(=O)(=O)N2CCCN(C)c3nc4ccccc4nc32)cc1 | active: 23.1 µM |
| CCCCNC(=O)O[C@H]1C[C@@H]2CCN3C(=O)CCC[C@H]([C@H]1CC)[C@H]23 | inactive |
| CN(c1nc2ccccc2n2c(-c3ccco3)nnc12)S(=O)(=O)c1ccccc1 | inconclusive [activator, single point] |
